# Experimental data published in the supplement of paper PMC8728848.
# The other results are listed elsewhere or left out.
# B1: Nictaba (Nicotiana tabacum), Q94EW1 (protein)
# chain: MQGQWIAARDLSITWVDNPQYWTWKTVDPNIEVAELRRVAWLDIYGKIETKNLIRKTSYAVYLVFKLTDNPRELERATASLRFVNEVAEGAGIEGTTVFISKKKKLPGELGRFPHLRSDGWLEIKLGEFFNNLGEDGEVEMRLMEINDKTWKSGIIVKGFDIRPN
# Assays:
# Assay in all cases: glycan array binding signal (z-score within array); higher = stronger binding
# Conditions in all cases: glycan notation: IUPAC condensed, linker removed
# [1] = biological target: Neu5Ac(a2-3)Gal(b1-4)GlcNAc(b1-3)[Neu5Ac(a2-3)Gal(b1-4)GlcNAc(b1-6)]GalNAc
# In short: (§1)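 The binding signal is a Z-score computed within each array. Data were drawn from 3228 arrays in the Consortium for Functional Glycomics database, restricted to those with a known protein sequence. Scores were averaged over arrays of the same protein sequence at different concentrations or buffers, and over linkers, and negative values can be taken as non-binding.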
# [2] = biological target: Neu5Ac(a2-3)Gal(b1-4)GlcNAc(b1-6)GalNAc
# In short: as §1
# [3] = biological target: Neu5Ac(a2-3)Gal(b1-4)GlcNAc(b1-6)[Gal(b1-3)]GalNAc
# In short: as §1
# [4] = biological target: Neu5Ac(a2-3)Gal(b1-4)GlcNAc(b1-6)[Neu5Ac(a2-3)Gal(b1-3)]GalNAc
# In short: as §1
# [5] = biological target: Neu5Ac(a2-3)Gal(b1-4)GlcNAc6S
# In short: as §1
# [6] = biological target: Neu5Ac(a2-3)Gal(b1-4)[Fuc(a1-3)]GlcNAc
# In short: as §1
# [7] = biological target: Neu5Ac(a2-3)Gal(b1-4)[Fuc(a1-3)]GlcNAc(b1-2)Man
# In short: as §1
# [8] = biological target: Neu5Ac(a2-3)Gal(b1-4)[Fuc(a1-3)]GlcNAc(b1-3)Gal
# In short: as §1
# [9] = biological target: Neu5Ac(a2-3)Gal(b1-4)[Fuc(a1-3)]GlcNAc(b1-3)Gal(b1-4)GlcNAc
# In short: as §1
# [10] = biological target: Neu5Ac(a2-3)Gal(b1-4)[Fuc(a1-3)]GlcNAc(b1-3)Gal(b1-4)[Fuc(a1-3)]GlcNAc(b1-3)Gal(b1-4)[Fuc(a1-3)]GlcNAc
# In short: as §1
# [11] = biological target: Neu5Ac(a2-3)Gal(b1-4)[Fuc(a1-3)]GlcNAc(b1-3)GalNAc
# In short: as §1
# [12] = biological target: Neu5Ac(a2-3)Gal(b1-4)[Fuc(a1-3)]GlcNAc(b1-6)[Gal(b1-3)]GalNAc
# In short: as §1
# [13] = biological target: Neu5Ac(a2-3)Gal(b1-4)[Fuc(a1-3)]GlcNAc(b1-6)[Neu5Ac(a2-3)Gal(b1-3)]GalNAc
# In short: as §1
# [14] = biological target: Neu5Ac(a2-3)Gal(b1-4)[Fuc(a1-3)]GlcNAc6S
# In short: as §1
# [15] = biological target: Neu5Ac(a2-3)Gal6S(b1-4)GlcNAc
# In short: as §1
# [16] = biological target: Neu5Ac(a2-3)Gal6S(b1-4)[Fuc(a1-3)]GlcNAc
# In short: as §1
# Neu5Ac(a2-3)GalNAc = biological target: Neu5Ac(a2-3)GalNAc
# In short: as §1
# [17] = biological target: Neu5Ac(a2-3)GalNAc(b1-4)GlcNAc
# In short: as §1
# [18] = biological target: Neu5Ac(a2-3)[GalNAc(b1-4)]Gal(b1-4)Glc
# In short: as §1
# [19] = biological target: Neu5Ac(a2-3)[GalNAc(b1-4)]Gal(b1-4)GlcNAc
# In short: as §1
# [20] = biological target: Neu5Ac(a2-3)[GalNAc(b1-4)]Gal(b1-4)GlcNAc(b1-3)GalNAc
# In short: as §1
# [21] = biological target: Neu5Ac(a2-3)[Neu5Ac(a2-6)]GalNAc
# In short: as §1
# Neu5Ac(a2-6)Gal = biological target: Neu5Ac(a2-6)Gal
# In short: as §1
# [22] = biological target: Neu5Ac(a2-6)Gal(b1-3)GlcNAc(b1-3)[Gal(b1-4)GlcNAc(b1-6)]Gal(b1-4)Glc
# In short: as §1
# Neu5Ac(a2-6)Gal(b1-4)Glc = biological target: Neu5Ac(a2-6)Gal(b1-4)Glc
# In short: as §1
# [23] = biological target: Neu5Ac(a2-6)Gal(b1-4)GlcNAc
# In short: as §1
# [24] = biological target: Neu5Ac(a2-6)Gal(b1-4)GlcNAc(b1-2)Man
# In short: as §1
# [25] = biological target: Neu5Ac(a2-6)Gal(b1-4)GlcNAc(b1-2)Man(a1-3)Man(b1-4)GlcNAc(b1-4)GlcNAc
# In short: as §1
# [26] = biological target: Neu5Ac(a2-6)Gal(b1-4)GlcNAc(b1-2)Man(a1-3)[Gal(b1-4)GlcNAc(b1-2)Man(a1-6)]Man(b1-4)GlcNAc(b1-4)GlcNAc
# In short: as §1
# [27] = biological target: Neu5Ac(a2-6)Gal(b1-4)GlcNAc(b1-2)Man(a1-3)[GlcNAc(b1-2)Man(a1-6)]Man(b1-4)GlcNAc(b1-4)GlcNAc
# In short: as §1
# [28] = biological target: Neu5Ac(a2-6)Gal(b1-4)GlcNAc(b1-2)Man(a1-3)[GlcNAc(b1-2)Man(b1-4)GlcNAc(b1-2)Man(a1-6)]Man(b1-4)GlcNAc(b1-4)GlcNAc
# In short: as §1
# [29] = biological target: Neu5Ac(a2-6)Gal(b1-4)GlcNAc(b1-2)Man(a1-3)[GlcNAc(b1-4)][Neu5Ac(a2-6)Gal(b1-4)GlcNAc(b1-2)Man(a1-6)]Man(b1-4)GlcNAc(b1-4)GlcNAc
# In short: as §1
# [30] = biological target: Neu5Ac(a2-6)Gal(b1-4)GlcNAc(b1-2)Man(a1-3)[Man(a1-6)]Man(b1-4)GlcNAc(b1-4)GlcNAc
# In short: as §1
# [31] = biological target: Neu5Ac(a2-6)Gal(b1-4)GlcNAc(b1-2)Man(a1-3)[Neu5Ac(a2-3)Gal(b1-4)GlcNAc(b1-2)Man(a1-6)]Man(b1-4)GlcNAc(b1-4)GlcNAc
# In short: as §1
# [32] = biological target: Neu5Ac(a2-6)Gal(b1-4)GlcNAc(b1-2)Man(a1-3)[Neu5Ac(a2-6)Gal(b1-4)GlcNAc(b1-2)Man(a1-6)]Man(b1-4)GlcNAc(b1-4)GlcNAc
# In short: as §1
# [33] = biological target: Neu5Ac(a2-6)Gal(b1-4)GlcNAc(b1-2)Man(a1-3)[Neu5Ac(a2-6)Gal(b1-4)GlcNAc(b1-2)Man(a1-6)]Man(b1-4)GlcNAc(b1-4)[Fuc(a1-6)]GlcNAc
# In short: as §1
# [34] = biological target: Neu5Ac(a2-6)Gal(b1-4)GlcNAc(b1-2)Man(a1-6)Man(b1-4)GlcNAc(b1-4)GlcNAc
# In short: as §1
# [35] = biological target: Neu5Ac(a2-6)Gal(b1-4)GlcNAc(b1-2)Man(a1-6)[Gal(b1-4)GlcNAc(b1-2)Man(a1-3)]Man(b1-4)GlcNAc(b1-4)GlcNAc
# In short: as §1
# [36] = biological target: Neu5Ac(a2-6)Gal(b1-4)GlcNAc(b1-2)Man(a1-6)[GlcNAc(b1-2)Man(a1-3)]Man(b1-4)GlcNAc(b1-4)GlcNAc
# In short: as §1
# [37] = biological target: Neu5Ac(a2-6)Gal(b1-4)GlcNAc(b1-2)Man(a1-6)[Man(a1-3)]Man(b1-4)GlcNAc(b1-4)GlcNAc
# In short: as §1
# [38] = biological target: Neu5Ac(a2-6)Gal(b1-4)GlcNAc(b1-2)[Neu5Ac(a2-6)Gal(b1-4)GlcNAc(b1-4)]Man(a1-3)[GlcNAc(b1-4)][Neu5Ac(a2-6)Gal(b1-4)GlcNAc(b1-2)[Neu5Ac(a2-6)Gal(b1-4)GlcNAc(b1-6)]Man(a1-6)]Man(b1-4)GlcNAc(b1-4)GlcNAc
# In short: as §1
# [39] = biological target: Neu5Ac(a2-6)Gal(b1-4)GlcNAc(b1-2)[Neu5Ac(a2-6)Gal(b1-4)GlcNAc(b1-4)]Man(a1-3)[GlcNAc(b1-4)][Neu5Ac(a2-6)Gal(b1-4)GlcNAc(b1-4)Man(a1-6)]Man(b1-4)GlcNAc(b1-4)GlcNAc
# In short: as §1
# [40] = biological target: Neu5Ac(a2-6)Gal(b1-4)GlcNAc(b1-2)[Neu5Ac(a2-6)Gal(b1-4)GlcNAc(b1-6)]Man(a1-6)[Neu5Ac(a2-6)Gal(b1-4)GlcNAc(b1-2)Man(a1-3)][GlcNAc(b1-4)]Man(b1-4)GlcNAc(b1-4)GlcNAc
# In short: as §1
# [41] = biological target: Neu5Ac(a2-6)Gal(b1-4)GlcNAc(b1-3)Gal(b1-3)GlcNAc
# In short: as §1
# [42] = biological target: Neu5Ac(a2-6)Gal(b1-4)GlcNAc(b1-3)Gal(b1-4)GlcNAc
# In short: as §1
binder,measurement,setting,value
B1,glycan array binding signal (z-score),[1],-0.389
same,glycan array binding signal (z-score),[2],-0.385
same,glycan array binding signal (z-score),[3],-0.207
same,glycan array binding signal (z-score),[4],-0.302
same,glycan array binding signal (z-score),[5],-0.146
same,glycan array binding signal (z-score),[6],-0.258
same,glycan array binding signal (z-score),[7],-0.388
same,glycan array binding signal (z-score),[8],-0.241
same,glycan array binding signal (z-score),[9],-0.244
same,glycan array binding signal (z-score),[10],-0.273
same,glycan array binding signal (z-score),[11],-0.217
same,glycan array binding signal (z-score),[12],-0.249
same,glycan array binding signal (z-score),[13],-0.275
same,glycan array binding signal (z-score),[14],-0.265
same,glycan array binding signal (z-score),[15],-0.272
same,glycan array binding signal (z-score),[16],-0.254
same,glycan array binding signal (z-score),Neu5Ac(a2-3)GalNAc,-0.253
same,glycan array binding signal (z-score),[17],-0.22
same,glycan array binding signal (z-score),[18],-0.261
same,glycan array binding signal (z-score),[19],-0.269
same,glycan array binding signal (z-score),[20],-0.316
same,glycan array binding signal (z-score),[21],-0.311
same,glycan array binding signal (z-score),Neu5Ac(a2-6)Gal,-0.271
same,glycan array binding signal (z-score),[22],-0.287
same,glycan array binding signal (z-score),Neu5Ac(a2-6)Gal(b1-4)Glc,-0.258
same,glycan array binding signal (z-score),[23],-0.276
same,glycan array binding signal (z-score),[24],-0.387
same,glycan array binding signal (z-score),[25],1.36
same,glycan array binding signal (z-score),[26],-0.045
same,glycan array binding signal (z-score),[27],0.258
same,glycan array binding signal (z-score),[28],0.071
same,glycan array binding signal (z-score),[29],-0.387
same,glycan array binding signal (z-score),[30],1.87
same,glycan array binding signal (z-score),[31],0.06
same,glycan array binding signal (z-score),[32],-0.115
same,glycan array binding signal (z-score),[33],-0.341
same,glycan array binding signal (z-score),[34],0.139
same,glycan array binding signal (z-score),[35],1.9
same,glycan array binding signal (z-score),[36],0.983
same,glycan array binding signal (z-score),[37],0.567
same,glycan array binding signal (z-score),[38],-0.376
same,glycan array binding signal (z-score),[39],-0.379
same,glycan array binding signal (z-score),[40],-0.386
same,glycan array binding signal (z-score),[41],-0.254
same,glycan array binding signal (z-score),[42],-0.222
